# Reference: PubChem BioAssay AID1645886 (National Center for Advancing Translational Sciences (NCATS), 2021)
# Values joined by “and” are separate entries in the source; they are usually repeats but may differ in a detail not shown here. Equal entries are not always repeated. Out of some 16,000 compounds screened, about 260 (1.6%) were called active. Inconclusive means that the source gave no clear call. Such entries were picked first, then a sample of the others. The call rests on the fitted dose curve; in most records, active means well fitted inhibition curve with a large enough effect; inconclusive means small, poorly fitted or top-dose-only effect; inactive means no such curve, though single readings can be large or run the other way. A potency beside an inconclusive call is a rough fit, not a confirmed value.
# Molecular target: Rap guanine nucleotide exchange factor 4 (Homo sapiens) (UniProt Q8WZA2)
# Test: Validation qHTS for antagonist of cAMP-regulated guanine nucleotide exchange factor 4 (EPAC2); further: nearly all actives have a fitted effect of over 40% in size;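 on activity, negative = inhibition: 100% = activation by cAMP agonist control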
# Conditions: EPAC2 Rap1B BODIPY-GDP exchange, fluorescence; activity, negative = inhibition: at 112 µM (top of the series)
# Method in brief: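 Fluorescent exchange read-out: 100 nM EPAC2 with 250 nM RAP1B–BODIPY-GDP and 50 uM GDP; BODIPY-GDP release lowers fluorescence. Read at 480/540 nm every 5 min for 30 min at room temperature; normalized to 6.5 mM cAMP.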
# Potency means the concentration at half of the fitted maximal effect; tags describe the fitted curve by direction and shape.
# Sequence of UniProt Q8WZA2 (Q8WZA2 whole entry, looked up): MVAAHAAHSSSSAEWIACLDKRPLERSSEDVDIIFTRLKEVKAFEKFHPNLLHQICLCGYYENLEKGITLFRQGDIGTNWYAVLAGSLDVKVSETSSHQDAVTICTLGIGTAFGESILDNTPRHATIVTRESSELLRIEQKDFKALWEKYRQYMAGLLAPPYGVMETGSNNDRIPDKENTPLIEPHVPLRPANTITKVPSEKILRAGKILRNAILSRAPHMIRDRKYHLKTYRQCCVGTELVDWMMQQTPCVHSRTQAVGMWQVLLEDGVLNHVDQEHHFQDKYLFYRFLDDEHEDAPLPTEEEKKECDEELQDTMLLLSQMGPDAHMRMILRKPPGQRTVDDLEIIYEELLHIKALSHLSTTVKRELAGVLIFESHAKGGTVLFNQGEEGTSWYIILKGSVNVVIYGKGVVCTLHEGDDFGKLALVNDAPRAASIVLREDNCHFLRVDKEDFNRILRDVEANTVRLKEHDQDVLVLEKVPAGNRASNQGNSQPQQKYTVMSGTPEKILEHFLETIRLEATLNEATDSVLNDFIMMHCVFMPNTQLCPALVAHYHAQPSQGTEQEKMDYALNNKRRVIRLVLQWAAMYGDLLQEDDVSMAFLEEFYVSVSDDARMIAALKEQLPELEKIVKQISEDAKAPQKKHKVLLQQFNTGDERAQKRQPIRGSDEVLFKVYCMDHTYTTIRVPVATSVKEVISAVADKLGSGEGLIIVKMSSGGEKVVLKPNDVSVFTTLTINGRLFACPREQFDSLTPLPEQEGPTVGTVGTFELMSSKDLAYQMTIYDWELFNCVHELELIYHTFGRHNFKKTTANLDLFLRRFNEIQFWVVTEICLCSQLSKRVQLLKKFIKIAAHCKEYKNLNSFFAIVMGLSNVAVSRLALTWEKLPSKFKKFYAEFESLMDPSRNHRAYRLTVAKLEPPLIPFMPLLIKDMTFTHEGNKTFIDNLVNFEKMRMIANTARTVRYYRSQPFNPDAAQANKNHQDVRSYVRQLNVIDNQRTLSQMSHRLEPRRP
SMILES,Potency,"activity, negative = inhibition"
COc1cccc(Nc2ncc3nc(-c4ccc(F)cc4)c(=O)n(C[C@H]4CCCO4)c3n2)c1,"inconclusive: 44.7 µM [inhibitor, full curve, poor fit]",
COC(=O)CCC(C)C1CCC2C3CC[C@H]4CC(O)CC[C@@]4(C)C3CC(O)[C@]12C (stereo partly specified),"inconclusive: 56.2 µM [inhibitor, partial curve, poor fit]",
COc1cc(C)c(/C=C/C(C)=C/C=C/C(C)=C/C(=O)O)c(C)c1C,"inconclusive: 10 µM [inhibitor, partial curve]",
C=CC(C1=CC(=O)C(OC)=C(OC)C1=O)c1ccccc1 (stereo unspecified),"inconclusive: 44.7 µM [inhibitor, partial curve, poor fit]",
CCOC(=O)C[C@H]1c2ccccc2S(=O)(=O)N1c1ccccc1,"inconclusive: 70.8 µM [inhibitor, partial curve, poor fit]",
COCC(=O)N1CCC2(CCCN(C(=O)Nc3cccc(C#N)c3)C2)CC1,inactive,
O=C(O)c1cc(O)c2c(c1)[C@H]([C@H]1c3cc(C(=O)O)cc(O)c3C(=O)c3c(O[C@@H]4O[C@H](CO)[C@@H](O)[C@H](O)[C@H]4O)cccc31)c1cccc(O[C@@H]3O[C@H](CO)[C@@H](O)[C@H](O)[C@H]3O)c1C2=O,active: 79.4 µM,
CCn1c(C)nc2cc(NS(=O)(=O)c3ccccc3)cc(C(=O)N3C[C@@H](C)O[C@@H](C)C3)c21,inactive,
CC(=O)N1CCC[C@H]1C(=O)N1CCc2c(cnc(C)c2CNC(=O)/C=C/c2cccs2)C1,"inconclusive: 31.6 µM [inhibitor, partial curve, poor fit]",
CC[N+](C)(CC)CC(=O)Nc1c(C)cccc1C,"inconclusive: 89.1 µM [inhibitor, partial curve, poor fit]",
CC1=C(/C=C/C(C)=C/C=C/C(C)=C/C(=O)Nc2ccc(O)cc2)C(C)(C)CCC1,"inconclusive: 44.7 µM [inhibitor, partial curve] and inconclusive: 56.2 µM [inhibitor, single point]",inconclusive: -48.9% [inhibitor]
COc1ccc(-c2cn(Cc3ccc(C(=O)c4ccccc4)cc3)nn2)cc1,"inconclusive: 44.7 µM [inhibitor, partial curve, poor fit]",
O=C1CCN(Cc2ccccc2)CCN1[C@H](COc1ccccc1)Cc1ccccc1,active: 79.4 µM,
O=C(NCCN1CCOCC1)c1cnn(-c2nccc(-c3cc4ccccc4o3)n2)c1C1CC1,inactive,
O=C(O)COc1cccc(-c2ocnc2-c2nc(-c3ccccc3)c(-c3ccccc3)o2)c1,"inconclusive: 50.1 µM [inhibitor, partial curve, poor fit]",
